Reference: the supplement of paper PMC8728848
This is one part of the list.

What was measured:
Assay in all cases: glycan array binding signal (z-score within array); higher = stronger binding
Conditions in all cases: glycan notation: IUPAC condensed, linker removed
[1] = target: Gal(b1-4)GalNAc(b1-3)[Fuc(a1-2)]Gal(b1-4)GlcNAc
How it was run: (§1)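 From the Consortium for Functional Glycomics database, 3228 arrays were curated, keeping only those whose protein sequence was available. Binding is given as a within-array Z-score averaged across arrays sharing a protein sequence and across linkers. Negative Z-scores can be read as non-binding.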

[2] = target: Gal(b1-4)Glc
How it was run: as §1

[3] = target: Gal(b1-4)Glc6S
How it was run: as §1

[4] = target: Gal(b1-4)GlcNAc
How it was run: as §1

[5] = target: Gal(b1-4)GlcNAc(a1-6)Gal(b1-4)GlcNAc
How it was run: as §1

[6] = target: Gal(b1-4)GlcNAc(b1-2)Man
How it was run: as §1

[7] = target: Gal(b1-4)GlcNAc(b1-2)Man(a1-3)Man(b1-4)GlcNAc(b1-4)GlcNAc
How it was run: as §1

[8] = target: Gal(b1-4)GlcNAc(b1-2)Man(a1-3)[Gal(b1-4)GlcNAc(b1-2)Man(a1-6)]Man(b1-4)GlcNAc(b1-4)GlcNAc
How it was run: as §1

[9] = target: Gal(b1-4)GlcNAc(b1-2)Man(a1-3)[Gal(b1-4)GlcNAc(b1-2)Man(a1-6)]Man(b1-4)GlcNAc(b1-4)[Fuc(a1-6)]GlcNAc
How it was run: as §1

[10] = target: Gal(b1-4)GlcNAc(b1-2)Man(a1-3)[Gal(b1-4)GlcNAc(b1-2)Man(a1-6)][Gal(b1-4)GlcNAc(b1-4)]Man(b1-4)GlcNAc(b1-4)[Fuc(a1-6)]GlcNAc
How it was run: as §1

[11] = target: Gal(b1-4)GlcNAc(b1-2)Man(a1-3)[Gal(b1-4)GlcNAc(b1-2)Man(a1-6)][GlcNAc(b1-4)]Man(b1-4)GlcNAc(b1-4)[Fuc(a1-6)]GlcNAc
How it was run: as §1

[12] = target: Gal(b1-4)GlcNAc(b1-2)Man(a1-3)[GlcNAc(b1-2)Man(a1-6)]Man(b1-4)GlcNAc(b1-4)GlcNAc
How it was run: as §1

[13] = target: Gal(b1-4)GlcNAc(b1-2)Man(a1-3)[GlcNAc(b1-4)][Gal(b1-4)GlcNAc(b1-2)Man(a1-6)]Man(b1-4)GlcNAc(b1-4)GlcNAc
How it was run: as §1

[14] = target: Gal(b1-4)GlcNAc(b1-2)Man(a1-3)[Man(a1-6)]Man(b1-4)GlcNAc(b1-4)GlcNAc
How it was run: as §1

[15] = target: Gal(b1-4)GlcNAc(b1-2)Man(a1-6)Man(b1-4)GlcNAc(b1-4)GlcNAc
How it was run: as §1

[16] = target: Gal(b1-4)GlcNAc(b1-2)Man(a1-6)[GlcNAc(b1-2)Man(a1-3)]Man(b1-4)GlcNAc(b1-4)GlcNAc
How it was run: as §1

[17] = target: Gal(b1-4)GlcNAc(b1-2)Man(a1-6)[Man(a1-3)]Man(b1-4)GlcNAc(b1-4)GlcNAc
How it was run: as §1

[18] = target: Gal(b1-4)GlcNAc(b1-2)[Gal(b1-4)GlcNAc(b1-4)]Man(a1-3)[Gal(b1-4)GlcNAc(b1-2)Man(a1-6)]Man(b1-4)GlcNAc(b1-4)GlcNAc
How it was run: as §1

[19] = target: Gal(b1-4)GlcNAc(b1-2)[Gal(b1-4)GlcNAc(b1-4)]Man(a1-3)[Gal(b1-4)GlcNAc(b1-2)[Gal(b1-4)GlcNAc(b1-6)]Man(a1-6)]Man(b1-4)GlcNAc(b1-4)GlcNAc
How it was run: as §1

[20] = target: Gal(b1-4)GlcNAc(b1-2)[Gal(b1-4)GlcNAc(b1-4)]Man(a1-3)[GlcNAc(b1-4)][Gal(b1-4)GlcNAc(b1-2)Man(a1-6)]Man(b1-4)GlcNAc(b1-4)GlcNAc
How it was run: as §1

[21] = target: Gal(b1-4)GlcNAc(b1-2)[Gal(b1-4)GlcNAc(b1-4)]Man(a1-3)[GlcNAc(b1-4)][Gal(b1-4)GlcNAc(b1-2)[Gal(b1-4)GlcNAc(b1-6)]Man(a1-6)]Man(b1-4)GlcNAc(b1-4)GlcNAc
How it was run: as §1

[22] = target: Gal(b1-4)GlcNAc(b1-2)[Gal(b1-4)GlcNAc(b1-6)]Man(a1-6)[Gal(b1-4)GlcNAc(b1-2)Man(a1-3)]Man(b1-4)GlcNAc(b1-4)GlcNAc
How it was run: as §1

B1: Clec2 (Mus musculus), Q9JL99 (protein)
chain: MQDEDGYITLNIKPRKQALSSAEPASSWWRVMALVLLISSMGLVVGLVALGIMSVTQQKYLLAEKENLSATLQQLAKKFCQELIRQSEIKTKSTFEHKCSPCATKWRYHGDSCYGFFRRNLTWEESKQYCTEQNATLVKTASQSTLDYIAERITSVRWIGLSRQNSKKDWMWEDSSVLRKNGINLSGNTEENMNCAYLHNGKIHPASCKERHYLICERNAGMTRVDQLL
Question: Which results are given for B1?
Answer: glycan array binding signal (z-score) [1]: -0.849; glycan array binding signal (z-score) [2]: 0.165; glycan array binding signal (z-score) [3]: 1.76; glycan array binding signal (z-score) [4]: -0.415; glycan array binding signal (z-score) [5]: -0.921; glycan array binding signal (z-score) [6]: 0.756; glycan array binding signal (z-score) [7]: -0.472; glycan array binding signal (z-score) [8]: -0.795; glycan array binding signal (z-score) [9]: -0.497; glycan array binding signal (z-score) [10]: -0.771; glycan array binding signal (z-score) [11]: -0.989; glycan array binding signal (z-score) [12]: -0.6; glycan array binding signal (z-score) [13]: -0.464; glycan array binding signal (z-score) [14]: -0.66; glycan array binding signal (z-score) [15]: -0.597; glycan array binding signal (z-score) [16]: 1.09; glycan array binding signal (z-score) [17]: -0.136; glycan array binding signal (z-score) [18]: -0.86; glycan array binding signal (z-score) [19]: -0.864; glycan array binding signal (z-score) [20]: 0.396; glycan array binding signal (z-score) [21]: 0.075; glycan array binding signal (z-score) [22]: 0.254
